From PubChem BioAssay AID720647 (Broad Institute, 2013)
Several values for one entry are separate records, joined by “and”; a condition that tells them apart may be missing. Identical values can stand only once. Screen size: about 380,000 compounds; about 1,300 (0.34%) were called active. The inconclusive results got no clear call from the source; some entries with a clear call stand among them for comparison.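 Rule for the calls: active = drop in luminescence signal, shown as inhibition above about 50% in the replicate tests (limit read from the data, passing the limit was not always enough); inconclusive = probably only some replicates passing the limit; inactive = the rest.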

The molecules below were run on Drosophila bursicon receptor LGR2 (rickets) (assay: inhibitors of bursicon-induced LGR2 CRE-luciferase signal, primary screen, cell-based, HEK293, CRE-luciferase reporter, bursicon stimulation (AID 720647;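 note: agonist challenge used bursicon conditioned medium at about half maximal strength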)). Conditions: bursicon-stimulated, 4 h, at 9.99 µM, stronger effect = higher value.

| Structure (SMILES) | inhibition |
| --- | --- |
| Cc1cc2ncn(CCOc3ccccc3C#N)c2cc1C | inactive: -23.9% |
| COc1ccc(NC(=O)Nc2ccc3c(c2)C(=O)N([C@H](C)CO)C[C@H](C)[C@@H](CN(C)C(=O)c2ccccc2)OCCCC[C@@H](C)O3)cc1 | inactive: 6.56% |
| CN(Cc1nnc(-c2ccc(F)cc2)o1)c1ccccc1 | inactive: -93.8% |
| CCCCOP(=O)(c1ccc(N(C)C)cc1)C(Nc1ccccc1)c1ccccc1 (stereo not drawn) | inconclusive: 51.7% |
| COC(=O)C1=C(C)N(Cc2cccc(C(F)(F)F)c2)C(=NCc2ccc(OC)cc2)NC1c1ccccc1 (stereo not drawn) | inconclusive: 67.8% |
| Cc1ncc(CO)c2c1Oc1nc(-c3ccccc3)nc(SCC(=O)Nc3cccc(O)c3)c1C2 | inactive: 5.34% |
| N#C[C@@H]1[C@H](c2ccc(C#Cc3ccccc3F)cc2)[C@@H](CO)N1C(=O)C1CCC1 | inconclusive: 84.6% |
| CC(C)C[C@@H](CN1CCC[C@H]1CN1C(=O)C(=O)NC[C@@H]1Cc1ccccc1)N1C[C@H](Cc2ccccc2)N(CC2CCCCC2)C(=O)C1=O | inconclusive: 50.4% |
| CCOC(=O)C1=C[C@@H](CC)N(S(=O)(=O)c2ccc(C)cc2)[C@H]1c1cccs1 | inconclusive: 67.3% |
| COc1cccc(Nc2nc(C(N)Cc3ccc(F)cc3)cs2)n1 (stereo not drawn) | inconclusive: 93.7% |
| Cc1cc(OC(=O)c2ccccc2Br)cc(=O)n1C | inconclusive: 51.9% |
| COC(=O)CCC(=O)COc1ccc(OC)cc1C#N | inactive: -12.6% |
| Cc1ccc(-c2noc(-c3cccs3)n2)cc1 | active: 70.3% |
| CCOc1ccc(NC(=O)Nc2cccc(C(=O)O)c2)cc1 | active: 105% |
| O=C(NC(=S)N1CCCCC1)c1cccs1 | inactive: 3.14% |
| C[C@H](CO)N1C[C@H](C)[C@@H](CN(C)C)Oc2ccc(NS(=O)(=O)c3ccc(F)cc3)cc2CC1=O | inactive: -10.5% |
| C[C@@H]1CCCCO[C@@H](CN(C)Cc2ccc3c(c2)OCO3)[C@H](C)CN([C@@H](C)CO)C(=O)c2cc(NC(=O)Nc3ccc(F)cc3)ccc2O1 | inactive: 3.83% |
| CCOC(=O)[C@]12CCCC=C1N(Cc1cccc3ccccc13)C(=O)[C@H](CC(=O)NCCCCc1ccccc1)C2 | inconclusive: 25.4% |
| O=C(C[C@H]1C[C@H](C(=O)N2CCOCC2)[C@@]2(CCC3CCCC3)c3[nH]c4ccc(Cl)cc4c3CCN2C1=O)NCc1ccco1 | inconclusive: 50.7% |
| CC=Cc1ccc2n(c1=O)C[C@H]1[C@H](CO)[C@@H](C(=O)Nc3ccc(-c4ccccc4)cc3)N(C(=O)CC)[C@@H]21 (mixture of isomers) | inactive: -4.31% |
| Cc1ccc(-c2nc(-c3nccc4ccccc34)oc2-c2ccccc2)cc1 | inconclusive: 76.5% |
| COc1ccc(CC(=O)Nc2cccc(-c3nnc(-c4ccc(C)cc4)o3)c2)cc1OC | active: 103% and active: 94.2% |
| O=C(O)CCCCCN1C(=O)/C(=C\c2cn(-c3ccccc3)nc2-c2cccs2)SC1=S | inconclusive: 50.1% |
| C[C@H]1CN([C@@H](C)CO)C(=O)c2cc(NC(=O)Nc3ccccc3)ccc2O[C@H]1CN(C)Cc1ccc(-c2ccccc2)cc1 | inconclusive: -6.53% |

| Structure (SMILES) | inhibition |
| --- | --- |
| C[C@H](CO)N1C[C@H](C)[C@H](CN(C)Cc2ccccc2)Oc2c(NS(=O)(=O)c3cn(C)cn3)cccc2C1=O | inconclusive: 59.5% |
| C[C@H](CO)N1C[C@H](C)[C@@H](CN(C)C(=O)Nc2ccc(F)cc2)Oc2cc(C#CC3(O)CCCC3)ccc2S1(=O)=O | inactive: -2.53% |
| COc1ccc(CN(C)C[C@@H]2Oc3c(NC(=O)Nc4ccc(C(F)(F)F)cc4)cccc3C(=O)N([C@@H](C)CO)C[C@H]2C)cc1 | inconclusive: 32.1% |
| Nc1ncc(Br)cc1S(=O)(=O)Nc1cc(C(F)(F)F)cc(C(F)(F)F)c1 | inconclusive: 48.1% |
| CCOc1ccc2nc(NC(=O)c3ccco3)sc2c1 | inconclusive: 31.8% |
| O=c1c2ccccc2cnn1-c1nc2ccccc2[nH]1 | active: 100% |
| C[C@H](CO)N1C[C@H](C)[C@H](CN(C)C(=O)Nc2cccc3ccccc23)Oc2ncc(C#Cc3ccc(C(F)(F)F)cc3)cc2C1=O | inconclusive: 0.504% |
| CO[C@@H]1CN(C)C(=O)c2cc(NC(=O)Cc3ccccc3)ccc2OC[C@H](C)NC[C@@H]1C | inactive: -11.4% |
| COC(=O)c1ccccc1S(=O)(=O)NNC(=O)Nc1ccccc1 | active: 58.1% |
| O=C(c1ccc(CSc2nc3ccncc3[nH]2)cc1)N1CCN(c2cccc(Cl)c2)CC1 | active: 65.4% |
| Clc1ccccc1N=C1NN=C(c2cccs2)CS1 | inactive: -48.3% |
| O=C(COC(=O)C1CCC1)Nc1cccc(Cl)c1 | inconclusive: -1.42% |
| CCOc1ccc(N=Cc2c(C)[nH]n(-c3nc4ccccc4[nH]3)c2=O)cc1 | active: 63.1% |
| COCCn1c(=NC(=O)c2nc3ccccc3s2)sc2cc(S(C)(=O)=O)ccc21 | inconclusive: 11.2% |
| CO[C@H](CN(C)C(=O)c1ccccc1F)[C@H](C)CN([C@H](C)CO)S(=O)(=O)c1ccc(C)cc1 | inactive: -31.4% |
| COC(=O)c1ccc(NC(=S)NCCc2ccc(OC)cc2)cc1 | inconclusive: 50.6% |
| CC(C)NC(=S)N=Nc1c(O)[nH]c2ccc(C(C)C)cc12 | inactive: -5.08% |
| O=C1[C@@H](Oc2ccccc2)[C@@H](c2ccccc2)N1c1cccnc1 | inconclusive: 67.1% |
| CC(=O)Nc1sc2c(c1-c1nc3ccccc3s1)CN(C(C)C)CC2 | active: 102% |
| COC(=O)c1cc(=O)n(Cc2ccc3c(c2)OCO3)c(=Nc2ccc(F)cc2)s1 | inconclusive: 53.5% |
| Nc1ccccc1C(=O)Nc1cccc(C(=O)O)c1 | inconclusive: 46.7% |
| O=C1C=C(C2CCCCC2)C(=O)c2ccccc21 | inconclusive: 18% |
| CC(=O)N[C@@H]1C=C[C@H](CC(=O)NCc2ccc(Cl)cc2)O[C@H]1CO | inactive: 4.78% |
| CC(C)NC(=O)Nc1ccc2c(c1)C(=O)N([C@H](C)CO)C[C@@H](C)[C@H](CN(C)S(C)(=O)=O)OCCCC[C@H](C)O2 | inconclusive: 70.1% |
